# Measurements published in PubChem BioAssay AID743279 (National Center for Advancing Translational Sciences (NCATS), 2014).
# About 17,000 (4.7%) of roughly 360,000 compounds were called active. Inconclusive means that the source gave no clear call. Such entries were picked first, then a sample of the others. Rule as the data show it: active = activity change below about -50%; inconclusive = mostly about -30% to -49%; inactive = weaker than that.
# Assay: qHTS for Inhibitors of Inflammasome Signaling: IL-1-beta AlphaLISA Primary Screen
# Conditions: THP-1 LPS/ATP IL-1B secretion, 16 h; at 57.5 µM, active compounds read low
# How it was run: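 THP-1 cells pretreated 1 hr with compounds (up to 57.5 uM final), then stimulated with LPS (250 ng/mL final) plus ATP (1.25 mM final); secreted IL-1B measured by AlphaLISA after 16 hr, decreased signal indicating inhibition.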
# % is scaled to controls: 0 for no effect and ±100 for the full control effect.
row,SMILES,activity change
1,C=CCSC(=C(C#N)C#N)c1cc2c([nH]1)CCCC2,active: -115%
2,COc1ccc(N2CCN(c3ccc([N+](=O)[O-])nc3)CC2)cc1,inconclusive: -30.6%
3,COc1ccc(/C=C/C(=O)Nc2ccccc2)cc1OC,inconclusive: -45.6%
4,COCCNC(=O)CSc1c2c(nc3ccc(Cl)cc13)CCCC2,inconclusive: -40.1%
5,O=c1[nH]nc(Sc2ncnc3sccc23)n1CCc1ccccc1,inconclusive: -42.2%
6,C=C1CC(COc2ccc3c(C)c(Cl)c(=O)oc3c2)(c2ccccc2)OC1=O (configuration not stated),active: -99.9%
7,CCCCCCc1cc2cc(S(=O)(=O)c3ccc(F)c(Cl)c3)c(=O)oc2cc1O,active: -51.2%
8,Cc1cccc(S(=O)(=O)c2c(N)n(/N=C/c3ccco3)c3nc4ccccc4nc23)c1,inconclusive: -49.8%
9,CN1/C(=C\C(=S)Nc2ccccc2)C(C)(C)c2ccccc21,inconclusive: -40.6%
10,COc1ccc(Cl)cc1Cn1c(C)c(C(=O)NCc2ccc3c(c2)OCCO3)sc1=O,inactive: -8.72%
11,CCN(CC)CCNC(=O)c1ccc(NC(=O)c2ccc(S(=O)(=O)N(C)c3ccccc3OC)cc2)cc1,inconclusive: -34.3%
12,CSc1nc(C2CC2)cc(-c2cccs2)c1C#N,inconclusive: -31.4%
13,CCC/C=C/c1ccc(CN2C(C(C)C)C(=O)N(Cc3cn(CCC4OCCCO4)nn3)CCS2(=O)=O)cc1 (configuration not stated),inconclusive: -41.9%
14,COc1cc(OC)cc(-c2nnc(SCC(=O)N3CCCc4ccccc43)o2)c1,inactive: -3.32%
15,COc1ccc2nc(C)cc(SCC(=O)N/N=C/c3ccc(O)cc3O)c2c1,inconclusive: -30.8%
16,Cc1cc(C)cc(C(=O)OCC(=O)NCc2ccco2)c1,inactive: 13.1%
17,COc1ccc(-c2cc(C(=O)N3CCN(c4ncccn4)CC3)c3ccccc3n2)cc1OC,inconclusive: -44.8%
18,CN1CCN(c2ccc(S(=O)(=O)N3CCCCC3)cc2NC(=O)/C=C/c2ccc(OC(F)F)cc2)CC1,active: -79.6%
19,CNC(=O)c1c(O)c2cccc3c2n(c1=O)CCC3,inactive: -1.24%
20,CC(C)(C)C(=O)CSc1nnc(Nc2ccccc2)s1,inactive: -9%
21,Cc1cnn(C(=S)NCCc2ccccc2)c1,inactive: -29.5%

row,SMILES,activity change
1,CC(C(=O)N1CCc2ccccc21)N1CCN(c2cccc(C(F)(F)F)c2)CC1 (configuration not stated),inconclusive: -42.8%
2,Cc1cccc(C)c1NC(=O)CNC(=O)CNC(=O)c1ccc2c(c1)OCO2,inactive: -1.08%
3,O=[N+]([O-])c1nn(-c2ccc3c(c2)OCCO3)n(O)c1=Nc1ccc(Cl)cc1,inconclusive: -40.2%
4,O=C(NCCSSCCNC(=O)c1ccccc1)c1ccccc1,active: -67.5%
5,COc1ccc(Nc2nc(C)c(C(C)=O)s2)cc1,inactive: 4.3%
6,S=C(NCCCN1CCOCC1)N1CCN(c2cccc(Cl)c2)CC1,inconclusive: -42.9%
7,CCOC(=O)Cc1csc(NC(=O)CSc2nc(=O)[nH]c3c2CCC3)n1,active: -90.2%
8,Cc1cccn2c(=O)nc(SCC(=O)c3ccc(Cl)cc3)nc12,inconclusive: -45.3%
9,CCN1CCN(c2ccc(NC(=O)c3ccc4c(c3)OCCO4)cc2C)CC1,inconclusive: -37.8%
10,CC[C@]12c3[nH]c4cc(-c5ccco5)ccc4c3CCN1C(=O)[C@@H](CC(=O)NCc1ccc(OC)c(OC)c1)C[C@@H]2C(=O)N1CCN(C(=O)C2CC2)CC1,inconclusive: -40.1%
11,Cc1ccc(S(=O)(=O)NCC(=O)NCC(=O)NCCc2ccc(Cl)cc2)cc1C,inconclusive: -31.5%
12,O=C(CC(Nc1ccccc1Cl)C(=O)O)c1ccccc1 (configuration not stated),active: -55.1%
13,Cc1ccc(S(=O)(=O)c2nnn3c2nc(N2CCC(C(N)=O)CC2)c2ccccc23)cc1,inconclusive: -33.6%
14,COc1ccc(C2c3c4c(n(C)c3CCN2C)CCN(C)C4c2ccc(OC)cc2)cc1 (configuration not stated),active: -54.7%
15,COc1ccccc1-c1nnc2sc(COc3ccc(Cl)cc3Cl)nn12,active: -76.4%
16,O=c1cc(-c2ccccc2)[nH]n1-c1ccc([N+](=O)[O-])cc1,active: -63.8%
17,N#CC(c1ccccc1)C(CC(=NO)c1ccccc1)c1ccccc1 (configuration not stated),inconclusive: -46.8%
18,CC1=C(C(=O)Nc2ccccc2)C(c2ccncc2)C(C#N)=C(SCC(=O)Nc2ccccc2)N1 (configuration not stated),inconclusive: -37.1%
19,O=C(NCc1ccc(F)cc1F)[C@@H]1CCCN1C(=O)[C@@H]1CCCN1C(=O)c1cccc(Cl)c1,inconclusive: -32.7%
20,O=C(O)c1cccc(-n2c(/C=C/c3ccc([N+](=O)[O-])cc3)nc3ccccc3c2=O)c1,inactive: -6.03%
21,Cc1cccc(OC(C)C(=O)NCc2ccc(S(N)(=O)=O)cc2)c1 (configuration not stated),inactive: 28.2%
